# Measurements published in PubChem BioAssay AID445 (National Center for Advancing Translational Sciences (NCATS), 2006).
# Several values for one entry are separate records, joined by “and”; a condition that tells them apart may be missing. Identical values can stand only once. Screen size: about 110,000 compounds; about 40 (0.04%) were called active. Inconclusive results, whose numbers are uncertain, are shown with a selection of clear calls. Calls come from the whole dose curve; as a rule, active = well fitted curve in the direction sought with a large enough effect in the signal ratio (not every such curve was filed as active); inconclusive = small, poorly fitted or top-dose-only effect, or a change in a side signal; inactive = flat fitted curve, though single readings scatter; the % refers to the signal ratio. A potency beside an inconclusive call is a rough fit, not a confirmed value.
# Experiment: IkB Signaling;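 for IkBa stabilization activation: 0% = basal untreated cells and 100% = reference inhibitor full response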
# Settings: ABC-DLBCL IkBa-CBG/CBR dual luciferase ratio (green luciferase fused to IkBa over red control in OCI-Ly3 lymphoma cells), 4 h, scaled: untreated 0%
# Method in brief: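 Curves were fitted separately to fusion (green), unfused (red) and ratio luminescence, then classed by r2, magnitude and activity. Cells: OCI-Ly3, 4 h compound plus doxycycline at 37C; 10 uM MG-132 defined full response.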
# [1] = IkBa stabilization activation: at 57.1 µM (top of the series), proteasome inhibitor 100% unless noted
# Potency is the fitted concentration of half-maximal effect.
structure (smiles),measurement,setting,value
CCOC(=O)N/C(N)=N/c1nc2ccccc2s1,Potency,[1],"inconclusive: 31.6 µM [rising, partial curve]"
O=C1c2oc3ccc(Cl)cc3c(=O)c2C(c2cccnc2)N1Cc1ccco1 (stereo not given),IkBa stabilization activation,[1],inactive
O=C(c1ccco1)N1CCN(C(=O)N2c3ccccc3Sc3ccccc32)CC1,IkBa stabilization activation,[1],inactive
COc1ccc(CCN2C(=O)N(c3ccc(F)cc3)C(=O)C2CC(=O)Nc2ccc(F)c(F)c2)cc1 (stereo not given),IkBa stabilization activation,[1],inconclusive: -0.858% [signal inhibitor]
C=CCn1c(SCC(=O)Nc2ccc3c(c2)OCO3)nnc1-c1ccccc1O,IkBa stabilization activation,[1],inconclusive: 0.44% [signal inhibitor]
CN1C(=O)NC(c2ccccc2)C2=C1CN(c1cccc(C(F)(F)F)c1)C2=O (stereo not given),IkBa stabilization activation,[1],inactive
O=C(O)CCCC(=O)Nc1nc(-c2ccc(F)cc2)cs1,Potency,[1],"inconclusive: 1 µM [signal inhibitor, full curve]"
Cc1ccccc1NC(=O)CN1C(=O)CCn2nc(-c3cccn3C)cc21,IkBa stabilization activation,[1],inactive
O=S(=O)(NC1CCCC1)c1ccc(S(=O)(=O)N2CCc3ccccc32)cc1,IkBa stabilization activation,[1],inconclusive: 8.48% [signal inhibitor]
Cc1sc2c(c1C)c(=O)n(-c1cccc(C(F)(F)F)c1)c(=O)n2Cc1ccccc1C#N,IkBa stabilization activation,[1],inactive
CCCCn1c(-c2ccc(C)cc2)c(C)n2c3c(=O)n(C)c(=O)n(C)c3nc12,IkBa stabilization activation,[1],inconclusive: -4.9% [signal inhibitor]
Cc1ccc(OCCCCn2c(CCNC(=O)C(C)(C)C)nc3ccccc32)cc1,IkBa stabilization activation,[1],inconclusive: 3.55% [signal inhibitor]
Cc1ccc(SCc2nc(-c3ccccn3)no2)cc1,IkBa stabilization activation,[1],inactive
O=C(CCC1CCCCC1)Nc1ccccc1O,Potency,[1],"inconclusive: 7.94 µM [signal inhibitor, partial curve]"
Cc1cc(C)cc(N(CC(=O)Nc2cccc(C)n2)S(=O)(=O)c2c(C)noc2C)c1,IkBa stabilization activation,[1],inconclusive: 0.0538% [signal inhibitor]
CC1=C(C(=O)Nc2cccnc2)C(c2ccccc2)n2nc(SCc3ccccc3F)nc2N1 (stereo not given),IkBa stabilization activation,[1],inactive
O=C(Cc1ccccc1)Nc1cccc(-c2nc3cccnc3s2)c1,IkBa stabilization activation,[1],inactive
Clc1cccc(-c2nnc(SCc3nc4ccccc4[nH]3)n2Cc2ccco2)c1,IkBa stabilization activation,[1],inconclusive: 1.45% [signal inhibitor]
O=C(NC1CCCC1)c1ccc2c(c1)N(Cc1ccccc1F)C(=O)c1ccccc1S2,IkBa stabilization activation,[1],inconclusive: -0.973% [signal activator]
CNC[C@H](O)c1ccc(O)c(O)c1,IkBa stabilization activation,[1],inactive
CC1=C(C(=O)OCc2ccc(C)cc2)C(c2ccccc2Cl)CC(=O)N1 (stereo not given),IkBa stabilization activation,[1],inconclusive: 17.7% [signal activator]
CNC(=O)c1cc2c(=O)n3cc(C)ccc3nc2n(C(C)C)c1=N,IkBa stabilization activation,[1],inactive
Cc1cccc(OCC(=O)Nc2ccc3c(c2)nc(CCNC(=O)c2ccco2)n3C)c1,IkBa stabilization activation,[1],inconclusive: 1.11% [signal inhibitor]
c1ccc(COn2nnc3ccccc32)c(COn2nnc3ccccc32)c1,IkBa stabilization activation,[1],inconclusive: -2.63% [signal inhibitor]
COCCNC(=O)c1c(N)n(-c2cccc(C)c2)c2nc3ccccc3nc12,IkBa stabilization activation,[1],inactive
COC(=O)c1c(C)sc(-c2c(-c3cccc(Cl)c3)[nH]c3c2c(=O)[nH]c(=O)n3C)c1O,IkBa stabilization activation,[1],inconclusive: 5.4% [signal inhibitor]
COc1cccc(C(=O)NCC(=O)N2CCC(C)CC2)c1,Potency,[1],"inconclusive: 31.6 µM [signal inhibitor, partial curve]"
COc1ccc(CCNC(=O)CCc2c(C)nc3c(c(C)nn3-c3ccccc3)c2C)c(OC)c1,IkBa stabilization activation,[1],inconclusive: 0.0257% [signal inhibitor]
c1ccc2c(c1)OCC(c1nn3c(Cn4nnc5ccccc54)nnc3s1)O2 (stereo not given),IkBa stabilization activation,[1],inconclusive: 3.71% [signal inhibitor]
CN(C)c1ncc2nc(-c3ccc(F)cc3)c(=O)n(CCc3ccccc3)c2n1,IkBa stabilization activation,[1],"inactive: 1.99% [at 11.4 µM, scaled: untreated 0%, proteasome inhibitor 100%]"
Cc1cc(N2CCC(C)CC2)nc2ccc(NC(=O)/C=C/c3cccc(Cl)c3)cc12,IkBa stabilization activation,[1],inconclusive: -1.44% [signal inhibitor]
CC(C)c1ccc(Nc2c(-c3ccccc3O)nc3cnccn23)cc1,IkBa stabilization activation,[1],inconclusive: -4.01% [signal inhibitor]
COC(=O)Nc1nc2ccc(C(=O)c3cccs3)cc2[nH]1,IkBa stabilization activation,"at 25.6 µM (top of the series), proteasome inhibitor 100%",inconclusive: 11.3% [signal activator]
same,IkBa stabilization activation,"at 57.1 µM (top of the series), proteasome inhibitor 100%",inactive: 0.0354% and inconclusive: 16.7% [signal activator]
Cc1ccc2nc(NC(=O)c3cc(=O)c4cc(Cl)ccc4o3)sc2c1,IkBa stabilization activation,[1],inconclusive: 0.453% [signal inhibitor]
CC(=O)N1CCc2c(sc3c2c(=O)n(-c2ccc(C)cc2)c(=O)n3CC(=O)Nc2ccccc2)C1,Potency,[1],inconclusive: 31.6 µM [signal inhibitor]
Cn1c(Oc2ccc(F)cc2)nc2c1c(=O)n(Cc1ccccc1Cl)c(=O)n2C,IkBa stabilization activation,[1],inconclusive: 0.344% [signal inhibitor]
CC1CCN(c2oc(-c3cccc4ccccc34)nc2C#N)CC1,IkBa stabilization activation,[1],inactive
COC(=O)c1c(NC(=O)c2ccccc2C(=O)O)sc2c1CCCC2,IkBa stabilization activation,[1],inconclusive: 7.95% [signal inhibitor]
Cc1ccc(Cl)cc1N1CCN(CCNC(=O)Nc2ccc(Cl)cc2)CC1,IkBa stabilization activation,[1],inactive
O=C(C1CCCN(S(=O)(=O)c2cccs2)C1)N1CCc2ccccc2C1 (stereo not given),IkBa stabilization activation,[1],inconclusive: 1.48% [signal inhibitor]
Cn1c(SCC(=O)NCc2ccc3c(c2)OCO3)nc2scc(-c3cccs3)c2c1=O,IkBa stabilization activation,[1],inconclusive: 12.4% [signal inhibitor]
O=C(C1CCN(S(=O)(=O)c2cccc3nonc23)CC1)N1CCN(c2ccccc2)CC1,IkBa stabilization activation,[1],inconclusive: -0.101% [signal inhibitor]
CN1CCN(CCCN2c3ccccc3Sc3ccc(C(F)(F)F)cc32)CC1,IkBa stabilization activation,[1],inactive
COC(=O)CSc1nnc(CNC(=O)Cc2ccccc2)n1-c1ccccc1OC,IkBa stabilization activation,[1],inconclusive: 10.6% [signal inhibitor]
CS(=O)(=O)N1CCc2cc(C(=O)N3CCN(c4ccc(F)cc4)CC3)ccc21,IkBa stabilization activation,[1],inconclusive: 1.14% [signal inhibitor]
Cc1ccc(-n2c(SCC(=O)Nc3cccc(Cl)c3)nc3n[nH]c(C)c3c2=N)cc1,IkBa stabilization activation,[1],inactive
O=S(=O)(NCc1cn2ccsc2n1)c1ccc2c(c1)OCCO2,IkBa stabilization activation,[1],inactive
CC(=O)N1CCCc2ccc(NS(=O)(=O)c3ccc(F)cc3F)cc21,IkBa stabilization activation,[1],inconclusive: 5.69% [signal inhibitor]
COc1cc(C(=O)N2CCc3c([nH]c4ccccc34)C2c2ccccc2)cc(OC)c1OC (stereo not given),IkBa stabilization activation,[1],inconclusive: 0.313% [signal inhibitor]
COc1ccccc1OCCn1c(-c2ccc(Br)cc2)nc2ccccc2c1=O,IkBa stabilization activation,[1],inactive
Cc1cccc(N(CC(=O)NCCSc2ccc(Cl)cc2)S(=O)(=O)c2ccccc2)c1C,IkBa stabilization activation,[1],inconclusive: 4.51% [signal inhibitor]
O=C(NCc1ccc(N2CCCC2=O)cc1)Nc1cccc(Cl)c1,IkBa stabilization activation,[1],inconclusive: 4.74% [signal inhibitor]
Cc1ccc(C)c(N2CCN(C(=O)c3cc(S(=O)(=O)N4CCCC4)cn3C)CC2)c1,IkBa stabilization activation,[1],inconclusive: 1.92% [signal inhibitor]
CCOC(=O)C1CCC(CN(Cc2c(Cl)cccc2Cl)S(=O)(=O)c2ccc(F)cc2)CC1 (stereo not given),IkBa stabilization activation,[1],inconclusive: 2.52% [signal inhibitor]
CCOc1ccc(OCc2cccc(C(=O)O)c2)cc1,Potency,[1],"inconclusive: 5.01 µM [signal inhibitor, partial curve]"
COc1ccc(N2CCN(c3cc(C)c4ccc(O)cc4n3)CC2)cc1,IkBa stabilization activation,[1],inconclusive: 9.65% [signal inhibitor]
Cc1nc(SCC(=O)Nc2ccc(Br)cc2)[nH]c(=O)c1Cc1ccccc1,IkBa stabilization activation,[1],inconclusive: 5.73% [signal inhibitor]
Cc1c(Cl)cccc1NC(=O)Cn1nc(C)c2sc3ccccc3c2c1=O,IkBa stabilization activation,[1],inconclusive: 4.11% [signal inhibitor]
Cc1ccc(C)c(S(=O)(=O)c2nnn3c2nc(Nc2ccc(F)c(Cl)c2)c2sccc23)c1,IkBa stabilization activation,[1],inconclusive: 1.11% [signal inhibitor]
Cc1ccc2c(c1)N(C(=O)N1CCC(C(=O)NCc3ccco3)CC1)CC(C)O2 (stereo not given),IkBa stabilization activation,[1],inconclusive: 1.72% [signal inhibitor]
CCCCOC(=O)c1ccc(NC(=O)Cc2coc3ccc(C(C)C)cc23)cc1,IkBa stabilization activation,[1],inconclusive: -0.866% [signal inhibitor]
O=C(/N=C1\NC(=O)C(F)(C(F)(F)F)S1)NC1CCCCC1 (stereo not given),IkBa stabilization activation,[1],inactive
COc1ccc(NC(=O)C2C(=O)N(CCO)C3(C)CC2c2ccccc2O3)cc1 (stereo not given),IkBa stabilization activation,[1],inconclusive: 7.74% [signal inhibitor]
Cc1cc(C)c(C(=O)Nc2ccccc2)c(SCC(=O)Nc2ccc(Br)cc2C)n1,IkBa stabilization activation,[1],inconclusive: 0.675% [signal inhibitor]
CCN1C(=S)SC(=O)C1=C1C=C(C)N(Cc2ccco2)C(C)=C1,IkBa stabilization activation,[1],inactive
COc1ccc(-n2c(=O)c3ccc(C(=O)NCc4ccc(C)cc4)cc3n(CC(=O)Nc3ccc(C)cc3)c2=O)cc1,IkBa stabilization activation,[1],inactive
Cc1cnc(CNc2ncnc3ccc(-c4ccoc4)cc23)cn1,IkBa stabilization activation,[1],"inactive: -2.18% [at 11.4 µM, scaled: untreated 0%, proteasome inhibitor 100%]"
CC(=O)c1ccc(N2CCN(C3C(=O)c4ccccc4N3C(C)=O)CC2)cc1 (stereo not given),IkBa stabilization activation,[1],inconclusive: 6.67% [signal inhibitor]
O=C1CC(Sc2nnc(-c3ccccc3)o2)C(=O)N1c1ccccc1 (stereo not given),IkBa stabilization activation,[1],inconclusive: 0.0262% [signal inhibitor]
